The assay has as its target Voltage-gated inwardly rectifying potassium channel KCNH2 (Homo sapiens, UniProt Q12809). The following applies: Potency.
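Further: confirmatory quantitative high-throughput screen measuring inhibition of hERG channel activity.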

Chain of Voltage-gated inwardly rectifying potassium channel KCNH2 (Q12809 whole entry): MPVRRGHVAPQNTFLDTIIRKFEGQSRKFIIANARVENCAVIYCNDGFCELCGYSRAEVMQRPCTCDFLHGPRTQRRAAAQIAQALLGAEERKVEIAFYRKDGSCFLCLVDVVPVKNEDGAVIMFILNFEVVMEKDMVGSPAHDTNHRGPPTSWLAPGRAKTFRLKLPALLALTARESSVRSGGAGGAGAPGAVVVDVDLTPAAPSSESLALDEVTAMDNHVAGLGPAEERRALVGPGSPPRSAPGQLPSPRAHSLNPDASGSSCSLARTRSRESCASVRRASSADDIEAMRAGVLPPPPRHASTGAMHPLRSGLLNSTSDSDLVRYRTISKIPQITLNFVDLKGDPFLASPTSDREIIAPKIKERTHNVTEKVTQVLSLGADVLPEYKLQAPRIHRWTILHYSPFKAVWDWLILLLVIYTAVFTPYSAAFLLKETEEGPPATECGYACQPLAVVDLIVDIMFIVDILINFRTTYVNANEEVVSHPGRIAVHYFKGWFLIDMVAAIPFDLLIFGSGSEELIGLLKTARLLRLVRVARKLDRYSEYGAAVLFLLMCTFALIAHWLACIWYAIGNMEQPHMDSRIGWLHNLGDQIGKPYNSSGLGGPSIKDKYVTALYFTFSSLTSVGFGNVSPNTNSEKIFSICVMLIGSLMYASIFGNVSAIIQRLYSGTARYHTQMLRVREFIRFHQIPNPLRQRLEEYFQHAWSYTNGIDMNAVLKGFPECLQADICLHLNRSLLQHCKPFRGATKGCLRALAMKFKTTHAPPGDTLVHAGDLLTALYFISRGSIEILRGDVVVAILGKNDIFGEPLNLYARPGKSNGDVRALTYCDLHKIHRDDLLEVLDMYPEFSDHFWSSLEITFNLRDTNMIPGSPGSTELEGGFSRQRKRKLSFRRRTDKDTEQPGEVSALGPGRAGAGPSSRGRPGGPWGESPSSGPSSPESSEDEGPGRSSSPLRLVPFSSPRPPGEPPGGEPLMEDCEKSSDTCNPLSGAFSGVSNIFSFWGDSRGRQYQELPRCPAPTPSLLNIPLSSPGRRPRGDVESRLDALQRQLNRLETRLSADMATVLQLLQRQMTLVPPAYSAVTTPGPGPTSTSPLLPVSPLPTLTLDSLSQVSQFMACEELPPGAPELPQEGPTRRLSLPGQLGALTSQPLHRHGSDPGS

Usually AC50 stands for the concentration giving half of the maximal activity seen. `CCCCCCCCCCCCCCCC[n+]1ccccc1`: the AC50 was inconclusive: 20 µM.

These data come from ChEMBL document CHEMBL1201862, “PubChem BioAssay data set” (2004).
